# Source: the supplement of paper PMC11741623
# This is one part of the list. Interaction screen of human proteins with wild-type SARS-CoV-2 proteins by split-DHFR complementation in yeast, 1 µg/mL methotrexate. Value = fitness of the pair (three or more lineages) minus that of the viral protein without a human partner, on a scale set by negative (0) and fused positive (1) controls, mean of up to three cultures; higher = more likely to interact. Active = false discovery rate below 0.05 (one-sided t-test) in at least one culture. Nearly all pairs are not hits, and differences among them are mostly noise (correlation between cultures about 0.3); most hits were seen in one culture only. Human sequences are the Swiss-Prot entries looked up by gene name; the clone may be another isoform. NSP2 values were corrected by the authors for a growth advantage. Listed are human proteins with a hit and a random twelfth of the others.
# B1: IGHD, P01880 (protein)
# chain: APTKAPDVFPIISGCRHPKDNSPVVLACLITGYHPTSVTVTWYMGTQSQPQRTFPEIQRRDSYYMTSSQLSTPLQQWRQGEYKCVVQHTASKSKKEIFRWPESPKAQASSVPTAQPQAEGSLAKATTAPATTRNTGRGGEEKKKEKEKEEQEERETKTPECPSHTQPLGVYLLTPAVQDLWLRDKATFTCFVVGSDLKDAHLTWEVAGKVPTGGVEEGLLERHSNGSQSQHSRLTLPRSLWNAGTSVTCTLNHPSLPPQRLMALREPAAQAPVKLSLNLLASSDPPEAASWLLCEVSGFSPPNILLMWLEDQREVNTSGFAPARPPPQPRSTTFWAWSVLRVPAPPSPQPATYTCVVSHEDSRTLLNASRSLEVSYLAMTPLIPQSKDENSDDYTTFDDVGSLWTTLSTFVALFILTLLYSGIVTFIKVK
# B2: C19orf75, Q8N7X8 (protein)
# chain: MLPLLQLVPAKLLNSSCSLEKTLQCSCSFHGIPTPSVQWWMGGVPVGVDGMDGSLQVTSTMLGPWANSTISLTEEPEMGMRLLCEGKNQNGTHALSILLMSRKSSLAAQAFVKGLIQGAIYAGIVIALLFLCLLPLIVKHIRKKQAKKAAAIRAKKSSKVRASQELEMSLKPEEPGKPVVATFSESRILEKQDKRAS
# B3: ATAD3B, Q5T9A4 (protein)
# chain: MSWLFGVNKGPKGEGAGPPPPLPPAQPGAEGGGDRGLGDRPAPKDKWSNFDPTGLERAAKAARELEHSRYAKEALNLAQMQEQTLQLEQQSKLKEYEAAVEQLKSEQIRAQAEERRKTLSEETRQHQARAQYQDKLARQRYEDQLKQQQLLNEENLRKQEESVQKQEAMRRATVEREMELRHKNEMLRVETEARARAKAERENADIIREQIRLKASEHRQTVLESIRTAGTLFGEGFRAFVTDRDKVTATVAGLTLLAVGVYSAKNATAVTGRFIEARLGKPSLVRETSRITVLEALRHPIQVSRRLLSRPQDVLEGVVLSPSLEARVRDIAIATRNTKKNRGLYRHILLYGPPGTGKTLFAKKLALHSGMDYAIMTGGDVAPMGREGVTAMHKLFDWANTSRRGLLLFMDEADAFLRKRATEEISKDLRATLNAFLYHMGQHSNKFMLVLASNLPEQFDCAINSRIDVMVHFDLPQQEERERLVRLHFDNCVLKPATEGKRRLKLAQFDYGRKCSEVARLTEGMSGREIAQLAVSWQATAYASKDGVLTEAMMDACVQDAVQQYRQKMRWLKAEGPGRGVEHPLSGVQGETLTSWSLATDPSYPCLAGPCTFRICSWMGTGLCPGPLSPRMSCGGGRPFCPPGHPLL
# Molecular target: SARS-CoV-2 E
# Experiment: yeast fitness gain over the viral ORF with no human partner (scaled fitness); higher = more likely to interact
# Procedure: (§1)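 Split mouse DHFR complementation in pooled diploid yeast: human ORFeome clones carry one fragment and viral ORFs the other; barcoded lineages compete in 1 µg/mL methotrexate and fitness is read by barcode sequencing in up to three cultures.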
row,Binder,yeast fitness gain
1,B1,inactive: 0.0232
2,B2,inactive: 0.0241
3,B3,inactive: 0.0201

# Molecular target: SARS-CoV-2 M
# Experiment: as above
# Procedure: as §1
row,Binder,yeast fitness gain
1,B1,inactive: -0.0536
2,B2,inactive: -0.0314
3,B3,inactive: 0.00447

# Molecular target: SARS-CoV-2 N
# Experiment: as above
# Procedure: as §1
row,Binder,yeast fitness gain
1,B1,inactive: -0.0246
2,B3,inactive: 0.111

# Molecular target: SARS-CoV-2 NSP1
# Experiment: as above
# Procedure: as §1
row,Binder,yeast fitness gain
1,B1,inactive: 0.00844
2,B2,inactive: 0.106
3,B3,inactive: 0.028

# Molecular target: SARS-CoV-2 NSP10
# Experiment: as above
# Procedure: as §1
row,Binder,yeast fitness gain
1,B1,inactive: -0.0579
2,B2,inactive: 0.0303
3,B3,inactive: -0.0145

# Molecular target: SARS-CoV-2 NSP12
# Experiment: as above
# Procedure: as §1
row,Binder,yeast fitness gain
1,B1,inactive: 0.0607
2,B2,inactive: 0.0204
3,B3,inactive: 0.0274

# Molecular target: SARS-CoV-2 NSP13
# Experiment: as above
# Procedure: as §1
row,Binder,yeast fitness gain
1,B1,inactive: 0.0548
2,B2,inactive: -0.0259
3,B3,inactive: 0.0236

# Molecular target: SARS-CoV-2 NSP14
# Experiment: as above
# Procedure: as §1
row,Binder,yeast fitness gain
1,B1,inactive: -0.0228
2,B3,inactive: -0.0413

# Molecular target: SARS-CoV-2 NSP15
# Experiment: as above
# Procedure: as §1
row,Binder,yeast fitness gain
1,B1,inactive: 0.0375
2,B2,inactive: 0.074
3,B3,inactive: 0.0193

# Molecular target: SARS-CoV-2 NSP16
# Experiment: as above
# Procedure: as §1
row,Binder,yeast fitness gain
1,B1,inactive: 0.0666
2,B2,inactive: -0.142
3,B3,inactive: 0.00309

# Molecular target: SARS-CoV-2 NSP2
# Experiment: as above
# Procedure: as §1
row,Binder,yeast fitness gain
1,B1,inactive: -0.0648
2,B2,inactive: -0.145
3,B3,inactive: -0.14

# Molecular target: SARS-CoV-2 NSP4
# Experiment: as above
# Procedure: as §1
row,Binder,yeast fitness gain
1,B1,inactive: -0.192
2,B2,inactive: 0.0861
3,B3,inactive: 0.0358

# Molecular target: SARS-CoV-2 NSP5
# Experiment: as above
# Procedure: as §1
row,Binder,yeast fitness gain
1,B1,inactive: -0.0223
2,B2,inactive: 0.0187
3,B3,inactive: 0.00764

# Molecular target: SARS-CoV-2 NSP6
# Experiment: as above
# Procedure: as §1
row,Binder,yeast fitness gain
1,B1,inactive: 0.0042
2,B2,inactive: -0.0375
3,B3,inactive: 0.0143

# Molecular target: SARS-CoV-2 NSP7
# Experiment: as above
# Procedure: as §1
row,Binder,yeast fitness gain
1,B1,inactive: -0.00723
2,B2,inactive: 0.0336
3,B3,inactive: 0.0556

# Molecular target: SARS-CoV-2 NSP8
# Experiment: as above
# Procedure: as §1
row,Binder,yeast fitness gain
1,B1,inactive: -0.0128
2,B2,inactive: 0.00762
3,B3,inactive: 0.000838

# Molecular target: SARS-CoV-2 NSP9
# Experiment: as above
# Procedure: as §1
row,Binder,yeast fitness gain
1,B1,inactive: 0.0329
2,B2,inactive: -0.491
3,B3,inactive: 0.0669

# Molecular target: SARS-CoV-2 ORF10
# Experiment: as above
# Procedure: as §1
row,Binder,yeast fitness gain
1,B1,inactive: 0.0194
2,B2,inactive: -0.00578
3,B3,inactive: -0.0155

# Molecular target: SARS-CoV-2 ORF3A
# Experiment: as above
# Procedure: as §1
row,Binder,yeast fitness gain
1,B1,inactive: 0.0692
2,B3,inactive: -0.0161

# Molecular target: SARS-CoV-2 ORF3B
# Experiment: as above
# Procedure: as §1
row,Binder,yeast fitness gain
1,B1,inactive: 0.0842
2,B2,inactive: 0.00338
3,B3,inactive: 0.031

# Molecular target: SARS-CoV-2 ORF6
# Experiment: as above
# Procedure: as §1
row,Binder,yeast fitness gain
1,B1,inactive: 0.0486
2,B2,inactive: 0.0565
3,B3,inactive: 0.00895

# Molecular target: SARS-CoV-2 ORF7A
# Experiment: as above
# Procedure: as §1
row,Binder,yeast fitness gain
1,B1,inactive: 0.0609
2,B2,inactive: 0.0825
3,B3,inactive: 0.0344

# Molecular target: SARS-CoV-2 ORF7B
# Experiment: as above
# Procedure: as §1
row,Binder,yeast fitness gain
1,B1,inactive: 0.00603
2,B2,inactive: 0.0729
3,B3,inactive: 0.0143

# Molecular target: SARS-CoV-2 ORF8
# Experiment: as above
# Procedure: as §1
row,Binder,yeast fitness gain
1,B1,inactive: 0.0116
2,B2,inactive: 0.00512
3,B3,inactive: 0.037

# Molecular target: SARS-CoV-2 ORF9B
# Experiment: as above
# Procedure: as §1
row,Binder,yeast fitness gain
1,B1,inactive: 0.00602
2,B2,inactive: 0.0293
3,B3,inactive: -0.00571

# Molecular target: SARS-CoV-2 ORF9Bwu (the 73-codon ORF)
# Experiment: as above
# Procedure: as §1
row,Binder,yeast fitness gain
1,B1,inactive: 0.0436
2,B2,inactive: -0.108
3,B3,inactive: 0.00528

# Molecular target: SARS-CoV-2 S
# Experiment: as above
# Procedure: as §1
row,Binder,yeast fitness gain
1,B1,inactive: 0.0866
2,B2,inactive: -0.0227
3,B3,inactive: 0.00974
